Some of the results follow. Values were computed here from the reads of four pooled replicates and scatter widely.
molecular target: T1, Pho4 (S. cerevisiae) (UniProt P07270); experiment: relative binding free energy (BET-seq); higher = weaker binding; settings: reference: library average
T1 sequence: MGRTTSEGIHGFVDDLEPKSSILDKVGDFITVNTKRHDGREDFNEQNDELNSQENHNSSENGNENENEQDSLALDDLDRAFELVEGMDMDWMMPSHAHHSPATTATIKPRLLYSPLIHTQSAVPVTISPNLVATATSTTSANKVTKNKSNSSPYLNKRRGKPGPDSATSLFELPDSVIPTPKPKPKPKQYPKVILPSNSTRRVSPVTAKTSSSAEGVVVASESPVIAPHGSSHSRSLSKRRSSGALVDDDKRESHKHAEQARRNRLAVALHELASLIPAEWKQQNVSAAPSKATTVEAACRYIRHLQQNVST

Row | Sequence | relative binding free energy
1 | TTGAGCACGTGTATCT | -0.09 kcal/mol
2 | ATTTGCACGTGAGTGA | 0.14 kcal/mol
3 | TGGTACACGTGGCGAG | 0.02 kcal/mol
4 | AGTGGCACGTGCGGTT | -0.17 kcal/mol
5 | GTGTACACGTGAGTGG | 0.23 kcal/mol
6 | CTGGTCACGTGGCGGA | 0.16 kcal/mol
7 | GCCTTCACGTGCGGGT | 0.34 kcal/mol
8 | TTAGGCACGTGCCAGG | -0.14 kcal/mol
9 | TATTTCACGTGTGTAC | 0.18 kcal/mol
10 | CTCAACACGTGTTGGG | 0.19 kcal/mol
11 | GGGGTCACGTGGGGAA | 0.11 kcal/mol
12 | TTTTTCACGTGGTCTC | 0.16 kcal/mol
13 | GATTTCACGTGAGAGG | 0.49 kcal/mol
14 | AGTTTCACGTGTTCGT | 0.29 kcal/mol
15 | TGGAGCACGTGTATGC | -0.1 kcal/mol
16 | GAGTTCACGTGAGAGG | 0.55 kcal/mol
17 | TTAGGCACGTGGCATG | -0.23 kcal/mol
18 | GTGGCCACGTGTTGGT | 0.03 kcal/mol
19 | TTTATCACGTGGATAT | 0.07 kcal/mol
20 | GGATGCACGTGAGTAT | 0.03 kcal/mol
21 | TGCTACACGTGGTATT | 0.04 kcal/mol
22 | TGAAACACGTGGGGAA | -0.05 kcal/mol
23 | CGGGTCACGTGTAGAT | 0.36 kcal/mol

Row | Sequence | relative binding free energy
24 | ATGTGCACGTGGTATC | -0.11 kcal/mol
25 | CTTTGCACGTGGTGGT | -0.04 kcal/mol
26 | GGGTGCACGTGGCAGA | -0.16 kcal/mol
27 | GATGGCACGTGGGCTC | -0.07 kcal/mol
28 | TACTTCACGTGTTGAG | 0.17 kcal/mol
29 | TTAGGCACGTGCTGGA | -0.19 kcal/mol
30 | GTTCGCACGTGCATGG | -0.02 kcal/mol
31 | GGATACACGTGGTCTG | -0.13 kcal/mol
32 | GGTGACACGTGGGTGC | -0.13 kcal/mol
33 | AAGTGCACGTGGTCGA | -0.09 kcal/mol
34 | AGTTTCACGTGTCGTG | 0.31 kcal/mol
35 | TGGACCACGTGTGTGA | -0.03 kcal/mol
36 | TTATACACGTGGTTGA | 0.06 kcal/mol
37 | CGGAGCACGTGCGTGG | -0.13 kcal/mol
38 | GGGTTCACGTGGAGGT | 0.33 kcal/mol
39 | TGTTGCACGTGGCGGG | 0 kcal/mol
40 | GTGCTCACGTGGTAGT | 0.2 kcal/mol
41 | AATAACACGTGGGTAA | -0.17 kcal/mol
42 | GGCCGCACGTGATGGT | 0.19 kcal/mol
43 | TGTTTCACGTGGGCTC | 0.2 kcal/mol
44 | TTGGTCACGTGTTCAA | 0.12 kcal/mol
45 | AGTTCCACGTGTGGGT | 0 kcal/mol
46 | TTGGCCACGTGGTTCT | -0.16 kcal/mol

Row | Sequence | relative binding free energy
47 | AATAACACGTGTTTAG | 0.04 kcal/mol
48 | AGTGGCACGTGGGTCT | -0.27 kcal/mol
49 | GCTGGCACGTGGGGGC | -0.31 kcal/mol
50 | GTCATCACGTGCTGGG | 0.17 kcal/mol
51 | GGTTGCACGTGGGGCA | -0.06 kcal/mol
52 | TCGTGCACGTGGGGGG | -0.23 kcal/mol
53 | GAAGGCACGTGTTGGT | -0.04 kcal/mol
54 | TAGGTCACGTGCTCGG | 0 kcal/mol
55 | GTCGACACGTGTAGGT | 0.02 kcal/mol
56 | TGGGGCACGTGAAACG | 0.06 kcal/mol
57 | GTGTACACGTGACGTG | 0.18 kcal/mol
58 | TCGGGCACGTGTATTA | -0.09 kcal/mol
59 | TGCCGCACGTGTGGGT | 0.09 kcal/mol
60 | TATTGCACGTGTCGGT | 0.14 kcal/mol
61 | GAGTACACGTGTTATT | 0.15 kcal/mol
62 | GGTAGCACGTGCGGAG | 0.08 kcal/mol
63 | AGGGTCACGTGCTTAT | 0.07 kcal/mol
64 | TAGTTCACGTGCCGAG | 0.42 kcal/mol
65 | GAATACACGTGTTGAG | 0.18 kcal/mol
66 | GGTAACACGTGTTTAG | 0.18 kcal/mol
67 | GGAAGCACGTGTAATT | -0.02 kcal/mol
68 | CTTGACACGTGTATTG | 0.03 kcal/mol
69 | TGTAACACGTGTGTAG | 0 kcal/mol

Row | Sequence | relative binding free energy
70 | CTTTGCACGTGGTCAT | -0.01 kcal/mol
71 | GGGTACACGTGTTAAA | 0.19 kcal/mol
72 | AGTGTCACGTGGCGAT | -0.07 kcal/mol
73 | TGTTTCACGTGCTAGA | 0.19 kcal/mol
74 | GGTGGCACGTGGATGA | -0.04 kcal/mol
75 | CGGGGCACGTGCAAGG | -0.03 kcal/mol
76 | GATAGCACGTGTTGTA | -0.02 kcal/mol
77 | GGTTTCACGTGGTCTT | 0.16 kcal/mol
78 | GGGGACACGTGGGATT | 0.08 kcal/mol
79 | TATTGCACGTGATTCT | -0.01 kcal/mol
80 | GCTGTCACGTGTGTTT | 0.21 kcal/mol
81 | GGGGTCACGTGCTTGG | 0.17 kcal/mol
82 | GTTTTCACGTGGACTT | 0.27 kcal/mol
83 | CTGGACACGTGAGAGG | 0.23 kcal/mol
84 | CTGGTCACGTGGCATT | 0.03 kcal/mol
85 | TGGGGCACGTGTGGTC | 0.02 kcal/mol
86 | TAATACACGTGGTCGG | 0.01 kcal/mol
87 | TCGTTCACGTGTAGGC | 0.29 kcal/mol
88 | GGGGACACGTGACGTT | 0.04 kcal/mol
89 | GGTTACACGTGTCGAT | 0.29 kcal/mol
90 | TTGTCCACGTGTGGGG | 0.14 kcal/mol
91 | TGGTTCACGTGGACTG | 0.35 kcal/mol
92 | AGAAACACGTGGGGTG | -0.05 kcal/mol

Row | Sequence | relative binding free energy
93 | AGTGACACGTGTCTGG | -0.01 kcal/mol
94 | GCGTTCACGTGTGAAG | 0.48 kcal/mol
95 | GCGCGCACGTGTGTAG | 0.04 kcal/mol
96 | AGGGTCACGTGGCTGC | 0.02 kcal/mol
97 | TCGAGCACGTGTGTAA | 0.06 kcal/mol
98 | TTTAACACGTGCGTGG | -0.06 kcal/mol
99 | GTTTTCACGTGGTTTA | 0.32 kcal/mol
100 | GTCTACACGTGGAGAG | 0.24 kcal/mol
101 | AGTGGCACGTGAGTAG | 0.18 kcal/mol
102 | AAAGCCACGTGTGTGG | -0.05 kcal/mol
103 | GATTGCACGTGGCAGG | -0.12 kcal/mol
104 | TGGGTCACGTGCGTCT | 0.11 kcal/mol
105 | GCGGGCACGTGAGCGT | 0.15 kcal/mol
106 | CGTGGCACGTGTGTGG | -0.09 kcal/mol
107 | TGGCTCACGTGGGAAT | 0.21 kcal/mol
108 | AATTACACGTGTGATG | 0.08 kcal/mol
109 | ATCAGCACGTGTTTTT | -0.05 kcal/mol
110 | TACGACACGTGAGGTT | 0.19 kcal/mol
111 | CATGGCACGTGACGTG | 0.07 kcal/mol
112 | GGTGGCACGTGCTACG | -0.17 kcal/mol
113 | TACGGCACGTGAGGGG | 0.2 kcal/mol
114 | GGGGGCACGTGCTGAT | -0.2 kcal/mol
115 | GGCAGCACGTGGTAGT | -0.14 kcal/mol

— the BET-seq Pho4 binding data (Le et al. 2018)
